1 molecule from patent US20130336972A1 (published 2013) can be followed below.

The target of experiment [1] is chicken netrin-1 (chicken, UniProt Q90922). Description: SPR, Biacore T100, 25 C; Fn5 variant 1 captured by anti-human IgG on CM5 chip, netrin-1 as analyte. The procedure: (§1) DCC-fusion protein (Fn5 variant 1; SEQ ID NO: 3) was captured via amine coupled capture molecules. A series with increasing concentrations of netrin-1 was injected.
(§2) Classical concentration series were measured at a flow rate of 50 μL/min by sequential injection of the analyte in 5 or 6 increasing concentrations between c=400-1 nM. The analyte was injected for 3 minutes followed by a dissociation phase of 20 minutes. Various netrin-1 samples from different manufacturers were used for the measurements (human netrin-1, Alexis 522-100-0000/human metrin-1 Netris Pharma/chicken netrin-1, Alexis 522-106-2010).
(§3) Kinetic parameters were calculated by using the usual double referencing (control reference: binding of analyte to capture molecule; Flow Cell: netrin-1 concentration “0” as Blank) and calculation with model ‘titration kinetics 1:1 binding.

For experiment [2], the target named is T1, human netrin-1 (human, UniProt O95631 25-604).
T1 construct: also called human netrin-1, Alexis 522-100-0000; human metrin-1 Netris Pharma
Described as above. As to the method:
as §1, §2, §3

B1: DCC-fusion protein (Fn5-Fc (IgG1) fusion protein; Fn5 variant 1), mature form (Fc fusion)
chain: STPMLPPVGVQAVALTHDAVRVSWADNSVPKNQKTSEVRLYTVRWRTSFSASAKYKSEDTTSLSYTATGLKPNTMYEFSVMVTKNRRSSTWSMTAHATTYEA[human IgG1 Fc omitted]
notes: Expressed in HEK293-Freestyle cells and purified by protein A and SEC; also called Fn5-Fc fusion protein
In experiment [1], B1 yielded a Kd of 1.6 nM, a koff of 0.00013 s⁻¹ and a kon of 79000 M⁻¹ s⁻¹. In experiment [2], this molecule displayed a koff of 0.00057 s⁻¹ and a kon of 300000 M⁻¹ s⁻¹.
